Experimental data reported in PubChem BioAssay AID887 (National Center for Advancing Translational Sciences (NCATS), 2007).
Values joined by “and” are separate entries in the source; they are usually repeats but may differ in a detail not shown here. Equal entries are not always repeated. In all, about 74,000 compounds went through this assay and about 1,100 (1.5%) were called active. Inconclusive results, whose numbers are uncertain, are shown with a selection of clear calls. The call rests on the fitted dose curve; in most records, active means well fitted inhibition curve with a large enough effect; inconclusive means small, poorly fitted or top-dose-only effect; inactive means no such curve, though single readings can be large or run the other way. No potency is given beside an inconclusive call; the fits are too rough.

Each molecule was assayed against Polyunsaturated fatty acid lipoxygenase ALOX15 (Homo sapiens) (UniProt P16050) (assay: qHTS Assay for Inhibitors of 15-hLO (15-human lipoxygenase)). Conditions: purified 15hLO-1, xylenol orange hydroperoxide absorbance; activity change, negative = inhibition: at 57.1 µM (top of the series) unless noted.
Chain of UniProt P16050 (P16050 whole entry, looked up): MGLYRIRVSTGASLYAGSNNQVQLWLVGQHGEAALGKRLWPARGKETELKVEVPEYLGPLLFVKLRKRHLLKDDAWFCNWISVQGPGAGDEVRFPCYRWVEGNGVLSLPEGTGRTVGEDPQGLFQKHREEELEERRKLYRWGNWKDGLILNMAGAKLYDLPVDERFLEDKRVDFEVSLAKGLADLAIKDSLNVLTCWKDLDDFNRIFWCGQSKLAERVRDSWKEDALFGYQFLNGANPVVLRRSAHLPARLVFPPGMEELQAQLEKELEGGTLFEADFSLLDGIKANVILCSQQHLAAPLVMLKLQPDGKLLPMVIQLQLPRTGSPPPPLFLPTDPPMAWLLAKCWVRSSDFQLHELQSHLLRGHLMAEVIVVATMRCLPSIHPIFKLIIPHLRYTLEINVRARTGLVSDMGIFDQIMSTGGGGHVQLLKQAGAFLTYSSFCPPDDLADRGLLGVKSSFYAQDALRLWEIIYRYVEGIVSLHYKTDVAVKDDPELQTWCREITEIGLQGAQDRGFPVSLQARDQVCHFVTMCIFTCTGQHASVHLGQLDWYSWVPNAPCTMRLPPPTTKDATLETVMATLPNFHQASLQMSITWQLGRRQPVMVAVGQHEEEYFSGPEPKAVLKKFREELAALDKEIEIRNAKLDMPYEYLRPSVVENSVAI
Procedure, shortened: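 Quantitative HTS in 25 mM Hepes pH 7.5 containing 0.01% Triton X-100: human 15hLO-1 at 40 nM, arachidonic acid at 50 uM, 6 min turnover. Product quantified via ferrous oxidation/xylenol orange, 573:405 nm absorbance ratio.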
Further: nearly all actives have a fitted effect of over 55% in size.
On the % scale 0 is the no-effect control and ±100 the full control effect; potency means the concentration at half of the fitted maximal effect; tags describe the fitted curve by direction and shape.

| Compound | Potency | activity change, negative = inhibition |
| --- | --- | --- |
| COc1ccc(-c2nc(C#N)c(NCCCN(C)C)o2)cc1OC | inactive | – |
| c1ccc(OCc2nc3ccccc3[nH]2)cc1 | inactive | – |
| CO[C@@H]1COC(=O)C/C=C\[C@H](C)[C@@H](NS(=O)(=O)c2ccc(C)cc2)COC(=O)C/C=C\[C@@H]1C | – | inactive: 7.8% [at 11.4 µM] and inactive: 8.79% [at 11.4 µM] |
| CCN(CC)c1ccc2c(Cl)c(Br)c(=O)oc2c1 | inconclusive [inhibitor, partial curve] | – |
| CCOC(=O)C1C(=O)NC(SC)=C(C#N)C1c1ccccc1F (stereo not given) | inconclusive [inhibitor, partial curve] | – |
| O=C(Nc1ccc2c(c1)CCC2)C1CCN(c2c3c(nc4ncnn24)CCC3)CC1 | inconclusive [inhibitor, single point] | – |
| FC(F)(F)c1ccccc1-n1ccnc1 | inactive | – |
| COc1cc2c(cc1OC)-c1cc(NCc3ccccn3)nc(=O)n1CC2 | active: 12.6 µM | – |
| COc1ccc2[nH]cc(CCNc3nc(-c4ccoc4)nc4ccccc34)c2c1 | inactive | – |
| CCCc1noc2c1/C(=N\O)CC(CC(C)SCC)C2 (stereo not given) | inconclusive [inhibitor, single point] | – |
| COc1ccccc1OCC(=O)N(Cc1nc(-c2ccc(Cl)cc2)no1)C(C)C | inconclusive [inhibitor, single point] | – |
| O=C(c1ccco1)N1CCN(c2nc3ccccc3n3nnnc23)CC1 | inconclusive [inhibitor, partial curve] | – |
| COc1ccc(OC)c(C2CC(=O)N3CN(c4ccccc4F)CSC3=C2C#N)c1 (stereo not given) | inconclusive [inhibitor, full curve] | – |
| COC(=O)c1ccc(-c2cc(C(=O)O)c3cc4c(cc3n2)OCCO4)cc1 | inconclusive [inhibitor, single point] | – |
| CCOc1ccc(N(CC(=O)NCc2ccco2)S(=O)(=O)c2ccc(OC)c(OC)c2)cc1 | inconclusive [inhibitor, partial curve] | – |
| COc1ccc(NC(=O)c2ccc(-c3ccc(-c4noc(C)n4)cc3C)cc2)cc1OCCN(C)C | inconclusive [inhibitor, partial curve, poor fit] | – |
| Cc1ccc(S(=O)(=O)c2nc(-c3ccco3)oc2SCC(=O)NCC2CCCO2)cc1 (stereo not given) | inconclusive [inhibitor, single point] | – |
| Cc1ccc(-c2cn(S(=O)(=O)c3cccc4nsnc34)nc2N)cc1 | inactive | – |
| CCOC(=O)C1=C(CSc2nc(C)ccc2C#N)OC(N)=C(C#N)C1c1cccc(OC)c1OC (stereo not given) | active: 20 µM | – |
| Cc1nn(-c2nc3ccccc3n2Cc2ccccc2)c2c1C(=O)CC(C)(C)C2 | inconclusive [inhibitor, single point] | – |
| Cc1ccc(C2C=C(c3ccc4c(c3)OCO4)Nc3ncnn32)cc1 (stereo not given) | inactive | – |
| O=C(NCc1cccs1)C1CCN(S(=O)(=O)c2ccc3c(c2)OCCO3)CC1 | inconclusive [inhibitor, full curve] | – |
| c1ccc(/C(=N/Nc2nc3ccccc3s2)c2ccccn2)cc1 | – | inactive: 9.69% [at 11.4 µM] |
| COc1cc2c(cc1OC)-c1cc(=Nc3c(C)cc(C)cc3C)n(C)c(=O)n1CC2 | inconclusive [inhibitor, single point] | – |
| N#CC1=C(N)S[C@H](C(=O)C23CC4CC(CC(C4)C2)C3)[C@H]1c1ccncc1 | active: 12.6 µM | – |

| Compound | Potency | activity change, negative = inhibition |
| --- | --- | --- |
| COc1cccc(CN(Cc2cccnc2)S(=O)(=O)c2ccc(-n3cnnn3)c(C)c2)c1OC | inconclusive [inhibitor, single point] | – |
| COC(=O)/C=C\c1cc(O)ccc1O | inconclusive [inhibitor, partial curve] | – |
| COc1ccc(C2NC3=C(CCCC3)C(C#N)(C#N)C2(C#N)C#N)cc1 (stereo not given) | inconclusive [inhibitor, partial curve] | – |
| CCOC(=O)c1sc2nc3n(c(=O)c2c1C)CCC(C)CC3 (stereo not given) | inconclusive [inhibitor, single point] | – |
| Cc1cccc(Nc2nc(N)nc(CN3CCN(Cc4ccc5c(c4)OCO5)CC3)n2)c1 | inactive | – |
| CNc1cc(-c2ccccc2CN(C)C)ncn1 | inactive | – |
| COc1cc(C#CC#CCN2CCCCC2)ccc1O | inconclusive [inhibitor, single point] | – |
| O=C(CSc1nnnn1-c1ccccc1)NC(=O)Nc1ccc2c(c1)OCCO2 | inactive | – |
| O=C(Nc1nc(-c2ccccc2)cs1)c1ccc(Br)o1 | inconclusive [inhibitor, partial curve] | – |
| O=C(CSc1nc2[nH]ncc2c(=O)n1-c1ccccc1)N1CCCc2ccccc21 | active: 15.8 µM | – |
| Cc1cc(C)c2[nH]c(=O)c(CN(Cc3ccc4c(c3)OCO4)Cc3nnnn3C3CCCC3)cc2c1 | inconclusive [inhibitor, single point] | – |
| CCc1nc2oc3ccccc3c(=O)c2c(=O)n1CCOC | inactive | – |
| Cn1c(CCCOc2ccc(Cl)cc2Cl)nnc1SCC(=O)Nc1nccs1 | inactive | – |
| COc1ccc(-c2csc(NC(C)=O)n2)cc1OC | inconclusive [inhibitor, partial curve] | – |
| c1ccc2c(c1)c1ccccc1n2Cn1c2ccccc2c2ccccc21 | – | inactive: -1.97% [at 11.4 µM] |
| CCCCCCS(=O)[C@H]1CS(=O)(=O)C[C@@H]1S(=O)CCCCCC (stereo not given in full) | inconclusive [inhibitor, single point] | – |
| Cc1cc(C)nc(-n2nc(C)c(C3(O)C(=O)Nc4ccccc43)c2N)n1 (stereo not given) | inactive | – |
| COC(=O)CSc1nc(N2CCOCC2)c2c(c1C#N)CC(C)(C)N(C)C2 | inconclusive [inhibitor, single point] | – |
| CC=O | inactive | – |
| Cc1[nH]c2ccccc2c1C(=O)CN1CCCCC1C (stereo not given) | inconclusive [inhibitor, single point] | – |
| CCCn1c(CCC(=O)O)ccc1-c1cccs1 | inconclusive [inhibitor, partial curve] | – |
| CC1CCCN(c2nc3c(c(=O)[nH]c(=O)n3C)n2CCCc2ccccc2)C1 (stereo not given) | inconclusive [inhibitor, single point] | – |
| CCCCCCCN | inactive | – |
| CC(=O)N1CCN(c2ccccc2NC(=O)COc2cc(C)ccc2C(C)C)CC1 | inconclusive [inhibitor, partial curve] | – |
| CCc1nnc(NC(=O)CSc2nnc(-c3ccccc3O)n2-c2ccc(C)cc2C)s1 | inconclusive [inhibitor, partial curve] | – |

| Compound | Potency | activity change, negative = inhibition |
| --- | --- | --- |
| C(=N\n1cnnc1)/c1ccc2c(c1)OCO2 | inactive | – |
| Cc1cnc(CNc2cc(-c3ccc(N(C)C)cc3)ncn2)cn1 | inactive | – |
| O=C(Nc1ccc2[nH]c3c(c2c1)CCCC3)c1ccco1 | active: 15.8 µM | – |
| Cc1cc2n(n1)C(c1ccco1)Nc1ccccc1-2 (stereo not given) | inconclusive [inhibitor, single point] | – |
| Cc1cccc(NC(=O)COc2ccc(Br)cc2C)n1 | inconclusive [inhibitor, single point] | – |
| N#CC1=C(N)C2=C(N3CCCCC3)CCCC2C1(C#N)C#N (stereo not given) | active: 12.6 µM | – |
| Cc1ccnc(SCC(=O)O)n1 | inconclusive [inhibitor, full curve, poor fit] | – |
| O=C(O)CCN1Cc2ccccc2C1=O | active: 20 µM | – |
| Oc1ccc(C(c2nnnn2C2CCCC2)N2CCc3ccccc3C2)cc1 (stereo not given) | inconclusive [inhibitor, single point] | – |
| COc1ccc2c(c1)OC/C(=C/c1ccc(O)c(O)c1)C2=O | inactive | – |
| COc1ncc2nc(C)c(=O)n(C3CC3)c2n1 | inactive | – |
| CCc1ccc(O)c(N=Cc2ccccc2O)c1 | inconclusive [inhibitor, full curve] | – |
| CN(C(=O)c1ccco1)c1nnc(C23CC4CC(CC(C4)C2)C3)s1 | inconclusive [inhibitor, partial curve] | – |
| Nc1ccc(-n2c(N)c(C(=O)NCc3ccc4c(c3)OCO4)c3nc4ccccc4nc32)cc1 | inactive | – |
| Cc1csc(NC(=O)CN2CCCCCC2)n1 | inconclusive [inhibitor, single point] | – |
| Cc1ccc2c(c1)C1C=CCC1C(C(=O)O)N2 (stereo not given) | inconclusive [inhibitor, partial curve] | – |
| N=C(N)c1ccc(/C=C\c2ccc(C(=N)N)cc2)cc1 | – | inactive: 8.88% [at 11.4 µM] |
| CN(C)c1ccc(-c2cncnc2N(C)Cc2ccco2)cc1 | inconclusive [inhibitor, single point] | – |
| C=CCn1c(N2C(=O)CC(Cc3ccccc3)C2=O)nc2ccccc21 (stereo not given) | inconclusive [inhibitor, full curve] | – |
| Cc1nn(-c2ccc(F)cc2F)c2c1-c1nc(N3CCCC3)ncc1CC2 | active: 25.1 µM | – |
| C=CCNc1nc2c3ccccc3n(C(C)=O)c2s1 | inconclusive [inhibitor, single point] | – |
| COCCNc1ncnc2ccc(-c3ccccc3C)cc12 | inconclusive [inhibitor, partial curve] | – |
| COc1ccc(-c2nnn(Cc3nc(N)nc(N4CCCCC4)n3)n2)cc1 | inconclusive [inhibitor, single point] | – |
| COc1ccc(-c2cc(C(=O)N3CCN(c4ccccn4)CC3)c3ccccc3n2)cc1 | inactive | – |
| CCCc1[nH][nH]c(=O)c1C(c1ccccc1)C(C#N)C#N (stereo not given) | inactive | – |
